Measured values as given in the supplement of paper PMC8728848.
This is one part of the list.

What was measured:
Test in all cases: glycan array binding signal (z-score within array); higher = stronger binding
Conditions in all cases: glycan notation: IUPAC condensed, linker removed
[1] = biological target: Fuc(a1-2)Gal(b1-4)GlcNAc(b1-3)Gal(b1-4)GlcNAc(b1-2)Man(a1-3)[Fuc(a1-2)Gal(b1-4)GlcNAc(b1-3)Gal(b1-4)GlcNAc(b1-2)Man(a1-6)]Man(b1-4)GlcNAc(b1-4)GlcNAc
Summary of the method: (§1)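 The binding signal is a Z-score computed within each array. Data were drawn from 3228 arrays in the Consortium for Functional Glycomics database, restricted to those with a known protein sequence. Scores were averaged over arrays of the same protein sequence at different concentrations or buffers, and over linkers, and negative values can be taken as non-binding.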

[2] = biological target: Fuc(a1-2)Gal(b1-4)GlcNAc(b1-3)Gal(b1-4)GlcNAc(b1-3)Gal(b1-4)GlcNAc
Summary of the method: as §1

[3] = biological target: Fuc(a1-2)Gal(b1-4)GlcNAc(b1-3)GalNAc
Summary of the method: as §1

[4] = biological target: Fuc(a1-2)Gal(b1-4)GlcNAc(b1-3)[Fuc(a1-2)Gal(b1-4)GlcNAc(b1-6)]GalNAc
Summary of the method: as §1

[5] = biological target: Fuc(a1-2)Gal(b1-4)GlcNAc(b1-3)[Fuc(a1-3)[Gal(b1-4)]GlcNAc(b1-6)]Gal(b1-4)Glc
Summary of the method: as §1

[6] = biological target: Fuc(a1-2)Gal(b1-4)GlcNAc(b1-6)GalNAc
Summary of the method: as §1

[7] = biological target: Fuc(a1-2)Gal(b1-4)GlcNAc6S
Summary of the method: as §1

[8] = biological target: Fuc(a1-2)Gal(b1-4)[Fuc(a1-3)]GlcNAc
Summary of the method: as §1

[9] = biological target: Fuc(a1-2)Gal(b1-4)[Fuc(a1-3)]GlcNAc(b1-2)Man(a1-3)[Fuc(a1-2)Gal(b1-4)[Fuc(a1-3)]GlcNAc(b1-2)Man(a1-6)]Man(b1-4)GlcNAc(b1-4)[Fuc(a1-6)]GlcNAc
Summary of the method: as §1

[10] = biological target: Fuc(a1-2)Gal(b1-4)[Fuc(a1-3)]GlcNAc(b1-2)[Fuc(a1-2)Gal(b1-4)[Fuc(a1-3)]GlcNAc(b1-4)]Man(a1-3)[Fuc(a1-2)Gal(b1-4)[Fuc(a1-3)]GlcNAc(b1-2)Man(a1-6)]Man(b1-4)GlcNAc(b1-4)GlcNAc
Summary of the method: as §1

[11] = biological target: Fuc(a1-2)Gal(b1-4)[Fuc(a1-3)]GlcNAc(b1-3)Gal(b1-4)[Fuc(a1-3)]GlcNAc
Summary of the method: as §1

[12] = biological target: Fuc(a1-2)Gal(b1-4)[Fuc(a1-3)]GlcNAc(b1-3)Gal(b1-4)[Fuc(a1-3)]GlcNAc(b1-3)Gal(b1-4)[Fuc(a1-3)]GlcNAc
Summary of the method: as §1

[13] = biological target: Fuc(a1-2)Gal(b1-4)[Fuc(a1-3)]GlcNAc(b1-3)GalNAc
Summary of the method: as §1

[14] = biological target: Fuc(a1-2)Gal(b1-4)[Fuc(a1-3)]GlcNAc(b1-3)[Neu5Ac(a2-6)Gal(b1-4)GlcNAc(b1-6)]Gal(b1-4)Glc
Summary of the method: as §1

[15] = biological target: Fuc(a1-2)Gal3S(b1-4)GlcNAc
Summary of the method: as §1

[16] = biological target: Fuc(a1-2)Gal6S(b1-3)GlcNAc
Summary of the method: as §1

[17] = biological target: Fuc(a1-2)Gal6S(b1-3)GlcNAc6S
Summary of the method: as §1

[18] = biological target: Fuc(a1-2)Gal6S(b1-4)Glc
Summary of the method: as §1

[19] = biological target: Fuc(a1-2)Gal6S(b1-4)Glc6S
Summary of the method: as §1

[20] = biological target: Fuc(a1-2)[Gal(a1-3)]Gal
Summary of the method: as §1

[21] = biological target: Fuc(a1-2)[Gal(a1-3)]Gal(b1-3)GalNAc
Summary of the method: as §1

[22] = biological target: Fuc(a1-2)[Gal(a1-3)]Gal(b1-3)GalNAc(b1-3)Gal(a1-4)Gal(b1-4)Glc
Summary of the method: as §1

[23] = biological target: Fuc(a1-2)[Gal(a1-3)]Gal(b1-3)GlcNAc
Summary of the method: as §1

[24] = biological target: Fuc(a1-2)[Gal(a1-3)]Gal(b1-3)GlcNAc(b1-2)Man(a1-3)[Fuc(a1-2)[Gal(a1-3)]Gal(b1-3)GlcNAc(b1-2)Man(a1-6)]Man(b1-4)GlcNAc(b1-4)GlcNAc
Summary of the method: as §1

[25] = biological target: Fuc(a1-2)[Gal(a1-3)]Gal(b1-3)GlcNAc(b1-2)Man(a1-3)[Fuc(a1-2)[Gal(a1-3)]Gal(b1-3)GlcNAc(b1-2)Man(a1-6)]Man(b1-4)GlcNAc(b1-4)[Fuc(a1-6)]GlcNAc
Summary of the method: as §1

[26] = biological target: Fuc(a1-2)[Gal(a1-3)]Gal(b1-3)GlcNAc(b1-3)GalNAc
Summary of the method: as §1

[27] = biological target: Fuc(a1-2)[Gal(a1-3)]Gal(b1-3)GlcNAc(b1-6)GalNAc
Summary of the method: as §1

[28] = biological target: Fuc(a1-2)[Gal(a1-3)]Gal(b1-4)Glc
Summary of the method: as §1

[29] = biological target: Fuc(a1-2)[Gal(a1-3)]Gal(b1-4)GlcNAc
Summary of the method: as §1

[30] = biological target: Fuc(a1-2)[Gal(a1-3)]Gal(b1-4)GlcNAc(b1-2)Man
Summary of the method: as §1

B1: Sebin2 (Coprinopsis cinerea), A8PE78 (protein)
chain: MTTPFYAYCHNVQDDNTWRLGLVFANRSTADEWWRAISEATSSIPITKSITRVTPQYYTHDIRVWNMYNFFVDGNIKSISDKFRGRLFITLEYDRSGRGVSVFPPLHIVDHVSGNWYYIRSKTAPHLFWFYDETRNAIYASKEKRTRFKVSIRNPSPQTPKDAIMINSDDVVIHIKESLYVGVDSYLGHIIPTRAYRTFKFGELEGGAIAGIEVAENAEERCSSTFDGASLYFVGPDSSSPGEPWELV
glycan array binding signal (z-score) [1]: -0.414
glycan array binding signal (z-score) [2]: -0.116
glycan array binding signal (z-score) [3]: -0.141
glycan array binding signal (z-score) [4]: 0.577
glycan array binding signal (z-score) [5]: 0.351
glycan array binding signal (z-score) [6]: -0.068
glycan array binding signal (z-score) [7]: -0.027
glycan array binding signal (z-score) [8]: 0.122
glycan array binding signal (z-score) [9]: -0.178
glycan array binding signal (z-score) [10]: 0.336
glycan array binding signal (z-score) [11]: 0.623
glycan array binding signal (z-score) [12]: -0.227
glycan array binding signal (z-score) [13]: 0.057
glycan array binding signal (z-score) [14]: -0.237
glycan array binding signal (z-score) [15]: -0.238
glycan array binding signal (z-score) [16]: -0.062
glycan array binding signal (z-score) [17]: 0.437
glycan array binding signal (z-score) [18]: -0.035
glycan array binding signal (z-score) [19]: -0.75
glycan array binding signal (z-score) [20]: -0.23
glycan array binding signal (z-score) [21]: 0.288
glycan array binding signal (z-score) [22]: 0.225
glycan array binding signal (z-score) [23]: -0.084
glycan array binding signal (z-score) [24]: -0.103
glycan array binding signal (z-score) [25]: 0.09
glycan array binding signal (z-score) [26]: -0.042
glycan array binding signal (z-score) [27]: -0.148
glycan array binding signal (z-score) [28]: 0.343
glycan array binding signal (z-score) [29]: -0.332
glycan array binding signal (z-score) [30]: -0.146
